# Laboratory results: the supplement of paper PMC8728848
# The other results are listed elsewhere or left out.
# B1: Mermaid3 (Stilbonema majum) (protein)
# chain: MGSSHHHHHHSSGLVPRGSHMAASGWLRSPQGTVVKLYRRSLSWSKADEFCKDVDGRLVVDRTADMHLFLIKNVLKEKKSRVWVGLRRTASHSRTWIWSDGTRQNEGDLDANLWLRDEPNDAAGEEECALFMYSPWEKAWGLNDYLCRGGCRNYQFICEKWIR
# Key:
# Experiment in all cases: glycan array binding signal (z-score within array); higher = stronger binding
# Conditions in all cases: glycan notation: IUPAC condensed, linker removed
# [1] = target: GlcNAc(b1-4)GlcNAc(b1-4)GlcNAc(b1-4)GlcNAc(b1-4)GlcNAc(b1-4)GlcNAc
# Procedure, shortened: (§1)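 From the Consortium for Functional Glycomics database, 3228 arrays were curated, keeping only those whose protein sequence was available. Binding is given as a within-array Z-score averaged across arrays sharing a protein sequence and across linkers. Negative Z-scores can be read as non-binding.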
# [2] = target: GlcNAc(b1-4)[GlcNAc(b1-6)]GalNAc
# Procedure, shortened: as §1
# [3] = target: GlcNAc(b1-6)Gal(b1-4)GlcNAc
# Procedure, shortened: as §1
# GlcNAc(b1-6)GalNAc = target: GlcNAc(b1-6)GalNAc
# Procedure, shortened: as §1
# [4] = target: GlcNAc6S(b1-3)Gal(b1-4)GlcNAc
# Procedure, shortened: as §1
# Kdn(a2-3)Gal(b1-3)GalNAc = target: Kdn(a2-3)Gal(b1-3)GalNAc
# Procedure, shortened: as §1
# Kdn(a2-3)Gal(b1-3)GlcNAc = target: Kdn(a2-3)Gal(b1-3)GlcNAc
# Procedure, shortened: as §1
# Kdn(a2-3)Gal(b1-4)Glc = target: Kdn(a2-3)Gal(b1-4)Glc
# Procedure, shortened: as §1
# Kdn(a2-3)Gal(b1-4)GlcNAc = target: Kdn(a2-3)Gal(b1-4)GlcNAc
# Procedure, shortened: as §1
# [5] = target: Kdn(a2-3)Gal(b1-4)[Fuc(a1-3)]GlcNAc
# Procedure, shortened: as §1
# Kdn(a2-6)Gal(b1-4)GlcNAc = target: Kdn(a2-6)Gal(b1-4)GlcNAc
# Procedure, shortened: as §1
# [6] = target: Man(a1-2)Man(a1-2)Man(a1-3)Man
# Procedure, shortened: as §1
# [7] = target: Man(a1-2)Man(a1-2)Man(a1-6)[Man(a1-3)]Man
# Procedure, shortened: as §1
# Man(a1-2)Man(a1-3)Man = target: Man(a1-2)Man(a1-3)Man
# Procedure, shortened: as §1
# [8] = target: Man(a1-2)Man(a1-3)[Man(a1-2)Man(a1-6)]Man
# Procedure, shortened: as §1
# [9] = target: Man(a1-2)Man(a1-3)[Man(a1-2)Man(a1-6)]Man(a1-6)[Man(a1-2)Man(a1-2)Man(a1-3)]Man
# Procedure, shortened: as §1
# [10] = target: Man(a1-2)Man(a1-3)[Man(a1-2)Man(a1-6)]Man(a1-6)[Man(a1-2)Man(a1-2)Man(a1-3)]Man(b1-4)GlcNAc(b1-4)GlcNAc
# Procedure, shortened: as §1
# [11] = target: Man(a1-2)Man(a1-3)[Man(a1-6)]Man(a1-6)[Man(a1-2)Man(a1-3)]Man(b1-4)GlcNAc(b1-4)GlcNAc
# Procedure, shortened: as §1
# [12] = target: Man(a1-2)Man(a1-6)[Man(a1-3)]Man(a1-6)[Man(a1-2)Man(a1-2)Man(a1-3)]Man
# Procedure, shortened: as §1
# [13] = target: Man(a1-2)Man(a1-6)[Man(a1-3)]Man(a1-6)[Man(a1-2)Man(a1-2)Man(a1-3)]Man(b1-4)GlcNAc(b1-4)GlcNAc
# Procedure, shortened: as §1
# Man(a1-3)[Man(a1-6)]Man = target: Man(a1-3)[Man(a1-6)]Man
# Procedure, shortened: as §1
# [14] = target: Man(a1-3)[Man(a1-6)]Man(a1-6)[Man(a1-2)Man(a1-3)]Man(b1-4)GlcNAc(b1-4)GlcNAc
# Procedure, shortened: as §1
# [15] = target: Man(a1-3)[Man(a1-6)]Man(a1-6)[Man(a1-3)]Man
# Procedure, shortened: as §1
# [16] = target: Man(a1-3)[Man(a1-6)]Man(a1-6)[Man(a1-3)]Man(b1-4)GlcNAc(b1-4)GlcNAc
# Procedure, shortened: as §1
# [17] = target: Man(a1-3)[Man(a1-6)]Man(b1-4)GlcNAc(b1-4)GlcNAc
# Procedure, shortened: as §1
# [18] = target: Man(a1-3)[Man(a1-6)]Man(b1-4)GlcNAc(b1-4)[Fuc(a1-6)]GlcNAc
# Procedure, shortened: as §1
# Man(a1-6)Man = target: Man(a1-6)Man
# Procedure, shortened: as §1
# Man(b1-4)GlcNAc = target: Man(b1-4)GlcNAc
# Procedure, shortened: as §1
# MurNAc(b1-4)GlcNAc = target: MurNAc(b1-4)GlcNAc
# Procedure, shortened: as §1
# Neu5Ac(a2-3)Gal = target: Neu5Ac(a2-3)Gal
# Procedure, shortened: as §1
# [19] = target: Neu5Ac(a2-3)Gal(b1-3)GalNAc
# Procedure, shortened: as §1
# [20] = target: Neu5Ac(a2-3)Gal(b1-3)GalNAc(b1-3)Gal(a1-4)Gal(b1-4)Glc
# Procedure, shortened: as §1
# [21] = target: Neu5Ac(a2-3)Gal(b1-3)GalNAc(b1-4)Gal(b1-4)Glc
# Procedure, shortened: as §1
# [22] = target: Neu5Ac(a2-3)Gal(b1-3)GalNAc(b1-4)[Neu5Ac(a2-3)]Gal(b1-4)Glc
# Procedure, shortened: as §1
# [23] = target: Neu5Ac(a2-3)Gal(b1-3)GalNAc(b1-4)[Neu5Ac(a2-8)Neu5Ac(a2-3)]Gal(b1-4)Glc
# Procedure, shortened: as §1
# [24] = target: Neu5Ac(a2-3)Gal(b1-3)GalNAc6S
# Procedure, shortened: as §1
# [25] = target: Neu5Ac(a2-3)Gal(b1-3)GlcNAc
# Procedure, shortened: as §1
# [26] = target: Neu5Ac(a2-3)Gal(b1-3)GlcNAc(b1-2)Man
# Procedure, shortened: as §1
# [27] = target: Neu5Ac(a2-3)Gal(b1-3)GlcNAc(b1-2)Man(a1-3)[GlcNAc(b1-4)][Neu5Ac(a2-3)Gal(b1-3)GlcNAc(b1-2)Man(a1-6)]Man(b1-4)GlcNAc(b1-4)GlcNAc
# Procedure, shortened: as §1
# [28] = target: Neu5Ac(a2-3)Gal(b1-3)GlcNAc(b1-2)Man(a1-3)[Neu5Ac(a2-3)Gal(b1-3)GlcNAc(b1-2)Man(a1-6)]Man(b1-4)GlcNAc(b1-4)GlcNAc
# Procedure, shortened: as §1
# [29] = target: Neu5Ac(a2-3)Gal(b1-3)GlcNAc(b1-2)[Neu5Ac(a2-3)Gal(b1-3)GlcNAc(b1-4)]Man(a1-6)[Neu5Ac(a2-3)Gal(b1-3)GlcNAc(b1-2)Man(a1-3)]Man(b1-4)GlcNAc(b1-4)GlcNAc
# Procedure, shortened: as §1
# [30] = target: Neu5Ac(a2-3)Gal(b1-3)GlcNAc(b1-3)Gal(b1-3)GlcNAc
# Procedure, shortened: as §1
# [31] = target: Neu5Ac(a2-3)Gal(b1-3)GlcNAc(b1-3)Gal(b1-4)GlcNAc
# Procedure, shortened: as §1
# [32] = target: Neu5Ac(a2-3)Gal(b1-3)GlcNAc(b1-3)GalNAc
# Procedure, shortened: as §1
# [33] = target: Neu5Ac(a2-3)Gal(b1-3)GlcNAc(b1-6)GalNAc
# Procedure, shortened: as §1
binder,measurement,setting,value
B1,glycan array binding signal (z-score),[1],-0.172
same,glycan array binding signal (z-score),[2],-0.617
same,glycan array binding signal (z-score),[3],1.72
same,glycan array binding signal (z-score),GlcNAc(b1-6)GalNAc,0.518
same,glycan array binding signal (z-score),[4],0.567
same,glycan array binding signal (z-score),Kdn(a2-3)Gal(b1-3)GalNAc,0.967
same,glycan array binding signal (z-score),Kdn(a2-3)Gal(b1-3)GlcNAc,-0.708
same,glycan array binding signal (z-score),Kdn(a2-3)Gal(b1-4)Glc,1.11
same,glycan array binding signal (z-score),Kdn(a2-3)Gal(b1-4)GlcNAc,1.48
same,glycan array binding signal (z-score),[5],1.12
same,glycan array binding signal (z-score),Kdn(a2-6)Gal(b1-4)GlcNAc,-0.26
same,glycan array binding signal (z-score),[6],-0.704
same,glycan array binding signal (z-score),[7],0.503
same,glycan array binding signal (z-score),Man(a1-2)Man(a1-3)Man,-0.689
same,glycan array binding signal (z-score),[8],-0.702
same,glycan array binding signal (z-score),[9],-0.191
same,glycan array binding signal (z-score),[10],1.5
same,glycan array binding signal (z-score),[11],-0.45
same,glycan array binding signal (z-score),[12],-0.681
same,glycan array binding signal (z-score),[13],0.855
same,glycan array binding signal (z-score),Man(a1-3)[Man(a1-6)]Man,0.678
same,glycan array binding signal (z-score),[14],0.577
same,glycan array binding signal (z-score),[15],3.41
same,glycan array binding signal (z-score),[16],-0.282
same,glycan array binding signal (z-score),[17],-0.62
same,glycan array binding signal (z-score),[18],-0.415
same,glycan array binding signal (z-score),Man(a1-6)Man,0.744
same,glycan array binding signal (z-score),Man(b1-4)GlcNAc,4.76
same,glycan array binding signal (z-score),MurNAc(b1-4)GlcNAc,0.63
same,glycan array binding signal (z-score),Neu5Ac(a2-3)Gal,-0.546
same,glycan array binding signal (z-score),[19],-0.595
same,glycan array binding signal (z-score),[20],-0.559
same,glycan array binding signal (z-score),[21],-0.334
same,glycan array binding signal (z-score),[22],0.514
same,glycan array binding signal (z-score),[23],-0.82
same,glycan array binding signal (z-score),[24],-0.112
same,glycan array binding signal (z-score),[25],-0.277
same,glycan array binding signal (z-score),[26],-0.419
same,glycan array binding signal (z-score),[27],-0.546
same,glycan array binding signal (z-score),[28],0.621
same,glycan array binding signal (z-score),[29],-0.572
same,glycan array binding signal (z-score),[30],-0.538
same,glycan array binding signal (z-score),[31],-0.582
same,glycan array binding signal (z-score),[32],-0.361
same,glycan array binding signal (z-score),[33],0.004
